# Data published in PMC4336329 (PLoS ONE, 2015).
# About 14,000 (4.5%) of roughly 310,000 compounds showed an effect of 50% or more. Effects have a minus sign here. Some of the results follow.
# Biological target: human ether-à-go-go-related gene (hERG) potassium channel (human, UniProt Q12809)
# Assay: primary screen, population patch clamp on CHO cells stably expressing hERG
# 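Further: peak tail current of the secondary pulse compared with the same well before compound.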
# Sequence of human ether-à-go-go-related gene (hERG) potassium channel (Q12809 whole entry, looked up): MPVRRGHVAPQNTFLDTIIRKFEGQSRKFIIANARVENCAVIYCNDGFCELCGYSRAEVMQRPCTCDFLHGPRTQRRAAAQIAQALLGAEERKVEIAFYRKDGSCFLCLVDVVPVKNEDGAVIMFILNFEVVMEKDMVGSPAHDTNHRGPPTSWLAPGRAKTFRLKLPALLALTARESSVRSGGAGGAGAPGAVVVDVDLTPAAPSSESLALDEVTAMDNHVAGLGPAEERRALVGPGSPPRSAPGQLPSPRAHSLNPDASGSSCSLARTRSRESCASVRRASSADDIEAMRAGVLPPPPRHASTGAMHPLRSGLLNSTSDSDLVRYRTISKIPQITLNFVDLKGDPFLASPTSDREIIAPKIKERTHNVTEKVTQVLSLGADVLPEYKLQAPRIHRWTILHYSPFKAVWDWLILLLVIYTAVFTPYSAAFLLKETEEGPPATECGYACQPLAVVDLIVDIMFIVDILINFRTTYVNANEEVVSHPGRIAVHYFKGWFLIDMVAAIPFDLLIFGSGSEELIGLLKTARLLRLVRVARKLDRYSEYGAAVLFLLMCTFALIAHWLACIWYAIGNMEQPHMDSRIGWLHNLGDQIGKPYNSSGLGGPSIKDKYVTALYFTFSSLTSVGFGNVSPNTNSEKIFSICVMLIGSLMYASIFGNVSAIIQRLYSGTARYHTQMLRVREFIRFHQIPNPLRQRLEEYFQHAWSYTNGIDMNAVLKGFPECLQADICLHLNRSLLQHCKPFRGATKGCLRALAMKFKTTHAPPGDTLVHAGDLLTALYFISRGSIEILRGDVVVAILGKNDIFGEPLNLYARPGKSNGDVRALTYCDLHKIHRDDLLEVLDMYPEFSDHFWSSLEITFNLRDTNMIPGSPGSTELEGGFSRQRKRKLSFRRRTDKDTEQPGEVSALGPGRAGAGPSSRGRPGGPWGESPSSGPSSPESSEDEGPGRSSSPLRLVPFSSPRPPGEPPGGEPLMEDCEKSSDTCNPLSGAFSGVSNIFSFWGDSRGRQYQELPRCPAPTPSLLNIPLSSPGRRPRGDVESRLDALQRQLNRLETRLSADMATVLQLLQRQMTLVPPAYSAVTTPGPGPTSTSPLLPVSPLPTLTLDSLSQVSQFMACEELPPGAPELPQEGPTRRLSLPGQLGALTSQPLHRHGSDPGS
row,Compound,"hERG current change (%, negative = inhibition) at 10uM"
1,Cc1ccc(S(=O)(=O)N2CCOCC2)cc1C(=O)OCc1nnc(-c2ccccc2)o1,-42.1%
2,C/C(=N\NC(=S)NCCc1ccccc1)c1ccc(Cl)cc1,14.3%
3,COc1cc2c(c(OC)c1OC)-c1ccc(C(=O)O)cc1[C@@H](NC(C)=O)CC2,2.46%
4,Cn1c(=O)c2c(ncn2CC(COCc2ccccc2)OCc2ccccc2)n(C)c1=O (centres unmarked),-12.1%
5,COc1cc(OC)cc(C(=O)Nc2nc(-c3ccccc3)c(-c3ccccc3)o2)c1,12.3%
6,CCOC(=O)Cc1nnc(NC(=O)CSc2nc3ccccc3[nH]2)s1,5.14%
7,Cc1ccc(S(=O)(=O)N2CCCC2C(=O)OCc2ccco2)cc1 (centres unmarked),-27.8%
8,O=C(Cn1cccc1C(=O)c1ccccc1)NCc1ccc2c(c1)OCO2,-2.12%
9,CCOC(=O)[C@H]1[C@H]2COc3cc(OC)ccc3[C@@H]2N2C(=O)c3cc(C)ccc3NC(=O)[C@@]12C,2.3%
10,Cl.Nc1ncnc2c1CCC2,8.69%
11,O=C(CC(c1ccccc1)c1cc(Br)ccc1O)NCc1ccco1 (centres unmarked),-20%
12,O=C(Nc1nccs1)c1cc(-c2ccco2)nc2ccccc12,3.14%
13,Cc1ccc(C(OCCN(C)C)c2cccc(C(F)(F)F)c2)cc1.O=C(O)/C=C\C(=O)O (centres unmarked),-58.6%
14,Cc1ccccc1OCC(=O)OC(C)C(=O)NC1CCCC1 (centres unmarked),2.04%
15,CCOc1ccc2c(c1)C(c1ccc(C)cc1)=NNC(c1ccc(C)cc1)=N2,-16.6%
16,O=C(Nc1ccccc1C(F)(F)F)N1CCCC1c1cccnc1 (centres unmarked),15.2%
17,CN1C(CC(=O)Nc2ccc(Br)cc2)c2ccccc2CC1(C)C (centres unmarked),-38.2%
18,CC(=O)c1sc(NC(=O)c2cnc(Cl)c(Cl)c2)nc1C,13.3%
19,C/C(=N/NC(=O)c1cccc(N2CCCC2=O)c1)c1ccc(Br)cc1,-3.22%
20,CCCCn1nc(C(=O)NCc2ccccc2CN2CCCC2)c2ccccc2c1=O,-64.6%
21,COc1cc(/C=N/Nc2ccc(S(N)(=O)=O)cc2[N+](=O)[O-])cc(OC)c1O,11.6%
22,C=CCSc1nc2ccccc2c(=O)n1Cc1ccccc1,-4.88%
23,COc1cccc(/C=N/N2CCOCC2)c1O,9.22%

row,Compound,"hERG current change (%, negative = inhibition) at 10uM"
1,CC(C)[C@H](NC(=O)Nc1ccccc1F)C(=O)O,13.1%
2,CCOC(=O)c1c(CN2CCOCC2)n(-c2ccccc2)c2ccc(O)cc12,-69.2%
3,Cc1ccc(C(=O)N/C(=C/c2ccccc2)C(=O)NCc2ccncc2)cc1,-65.2%
4,CCOC(=O)c1nn(-c2ccc(F)cc2)c(=O)cc1OCC(=O)Nc1cccc(C)c1,4.46%
5,COc1cccc(CN(C)CC(=O)NCc2ccccc2Cl)c1,-5.14%
6,COc1ccc(OC)c(NC2c3ncccc3C(=O)N2Cc2ccco2)c1 (centres unmarked),-12.1%
7,CSc1nc2ccc(NC(=O)CSc3nnc(N)s3)cc2s1,-7.51%
8,Cc1cccc(-n2c(CNC(=O)Cc3ccccc3)n[nH]c2=S)c1,20%
9,CN(C)CCCN(C(=O)COc1ccccc1)c1nc2ccc(F)cc2s1.Cl,-68%
10,CC(C)Cc1ccc(/C=C/C(=O)NC2CC2)cc1,-8.98%
11,O=C(CSc1nc(-c2ccccc2)c(-c2ccccc2)o1)NC1CCS(=O)(=O)C1 (centres unmarked),-27.1%
12,COc1ccc(NC(=O)C2CCN(S(=O)(=O)c3c(C)noc3/C=C/N(C)C)CC2)cc1,-15.3%
13,O=C(COC(=O)c1ccc(S(=O)(=O)N2CCCC2)cc1)NCc1ccco1,-10.1%
14,COc1ccc(CCn2c(C)cc3c(c2=O)C(c2ccc4c(c2)OCO4)C(C#N)=C(N)O3)cc1OC (centres unmarked),-4.13%
15,CCc1cccc(CC)c1NC(=O)CSc1nnc(C(C)C)n1CC,7.06%
16,Cc1ccc(NC(=O)C/C(N)=N/OC(=O)c2ccccc2)cc1,42.8%
17,O=C(NCC1CCCO1)c1ccc(Cl)c(S(=O)(=O)N2CCCCC2)c1 (centres unmarked),-37.2%
18,Cc1cc(Cl)c2oc(C(=O)N(C)Cc3ccon3)c(C)c2c1,0.492%
19,CCOC(=O)c1sc(=NC(=O)c2ccc(C)cc2)n(C)c1C,13.8%
20,CCCNC(=O)c1ccc(N2CCC3(CC2)CC(c2ccccc2)=NO3)c(NC(=O)c2cccc(OC)c2)c1,-68.6%
21,Cc1cccc(N2CC34C=CC(O3)C(C(=O)O)C4C2=O)c1 (centres unmarked),4.25%
22,COc1n[nH]c(C(=O)Nc2cc(Cl)ccc2Cl)c1[N+](=O)[O-],17.9%
23,O=C(O)c1cc(NC(=O)c2ccco2)cc(NC(=O)c2ccco2)c1,18.4%

row,Compound,"hERG current change (%, negative = inhibition) at 10uM"
1,C(=NC12CN3CN(CN(C3)C1)C2)c1cccnc1,5.88%
2,COc1ccc(C(=O)CCc2ccccc2)c(O)c1,18.6%
3,COCCn1c(SCC(=O)Nc2nc(C)cs2)nnc1C(C)C,10.2%
4,COC(=O)c1ccc2c(c1)NC(=O)c1ccccc1S2,14.7%
5,CC(C)CCNc1nc(N)c([N+](=O)[O-])c(NCC2CCCO2)n1 (centres unmarked),-7.67%
6,COc1ccc(NC(=O)c2ccc(C(=O)Nc3ccc(OC)cc3OC)cc2)c(OC)c1,12.2%
7,COc1ccc(N2CC(C(=O)Nc3cc(C)on3)CC2=O)cc1 (centres unmarked),9.44%
8,O=C(CN1C(=O)c2cccnc2Oc2ccc(Cl)cc21)NCCC1=CCCCC1,10.3%
9,O=C(Nc1cccnc1Cl)c1ccc(S(=O)(=O)N2CCCCCC2)cc1,-8.39%
10,COC(=O)Nc1nnc(/C=C/c2ccccc2)s1,0.8%
11,Cc1ccc(S(=O)(=O)N2CCOC2CNC(=O)C(=O)NCCc2ccccc2)cc1 (centres unmarked),-25.6%
12,COc1ccccc1OCCC(=O)OCC(=O)NCc1ccc(Cl)cc1,-2.19%
13,COc1ccc2oc(C(=O)OCC(=O)N(CC(C)C)c3c(N)n(Cc4ccccc4)c(=O)[nH]c3=O)c(C)c2c1,-10.8%
14,S=c1[nH]nc(-c2ccco2)n1/N=C/c1ccc(Cl)c(Cl)c1,18.9%
15,O=C(NCc1cccc2ccccc12)c1cccs1,9.75%
16,CCC(=O)NCc1c(Cl)cccc1-n1cccc1,-17%
17,O=C(CN1CCN(Cc2ccc(F)cc2)CC1)Nc1ccccc1F,-35.2%
18,COCCN(C(=O)c1cccc(N2C(=O)CCC2=O)c1)c1nc(-c2ccc([N+](=O)[O-])cc2)cs1,-50.2%
19,Cc1cc(C)cc(NC(=O)N2CCCN(Cc3c(F)cccc3Cl)CC2)c1,-47.2%
20,Cc1cc(OCC(=O)Nc2ccncc2)ccc1Br,15.5%
21,CCOC(=O)c1c(C)[nH]c(C(=O)COC(=O)c2ccc(O)cc2)c1C,5.46%
22,COc1ccc2oc(-c3ccccc3)c(C(N)=O)c2c1,10.3%
23,COc1cc(OC)c(C(=O)NC2CCCCCC2)cc1OC,-3.27%

row,Compound,"hERG current change (%, negative = inhibition) at 10uM"
1,COc1cccc(/C=C/C(=O)OCC(=O)NCCc2ccccc2)c1,10.9%
2,Cc1cnc(NC(=O)CCCNC(=O)c2ccc(Cl)cc2)s1,12.8%
3,Cc1ccc(NC2(C#N)C(=O)Nc3ccccc32)cc1C (centres unmarked),-0.0165%
4,O=C(COC(=O)c1ccccc1C(=O)c1ccc(Cl)cc1)NCC1CCCO1 (centres unmarked),1.96%
5,CCN(CC)C(=O)CSc1nc2ccccc2c(=O)n1OC,-7.23%
6,COC(=O)c1ccc2[nH]c(C)cc(=O)c2c1,-0.139%
7,Cc1ccc(C)c(S(=O)(=O)Nc2ccc3cn[nH]c3c2)c1,1.86%
8,CCOc1cc2[nH]c(=S)n(CC3CCCO3)c(=O)c2cc1OCC (centres unmarked),-6.67%
9,Cc1ccnc(NC(=S)N2CCN(c3cccc(C(F)(F)F)c3)CC2)c1,3.32%
10,CCCN1CCC[C@@H]2Cc3nc(N)ncc3C[C@H]21.Cl,-16.9%
11,COc1ccc(-c2csc3ncnc(N4CCN(S(=O)(=O)c5cccc(F)c5)CC4)c23)cc1,-3.5%
12,C=CCNc1sc(C(=O)C(C)(C)C)c(N)c1C#N,5.11%
13,Clc1cccc(-c2nnc3n2CCCCC3)c1,21%
14,COc1cccc(/C=C2\Oc3cc(OCC(=O)N4Cc5ccccc5C[C@H]4C(=O)O)ccc3C2=O)c1,12.6%
15,Cc1cccn2c(=O)c3cc(C(=O)NCC(C)C)sc3nc12,-3.21%
16,Cc1ccc(C(=O)N/N=C\c2ccc3c(c2)OCO3)cn1,-22.5%
17,COc1cc(C=Nc2c(C)cc(C)cc2C)ccc1OC(C)=O,10.6%
18,Cc1nn(CC(=O)NN)c(C)c1Br,14.6%
19,O=C(O)c1cccc2nc3ccccc3nc12,-7.69%
20,CCCNS(=O)(=O)c1ccc(OCC(=O)N2CCN(C)CC2)cc1,-0.85%
